Test results: the DeepSol protein solubility set

Experiment: soluble on expression in E. coli; label from the status in PepcDB or PDB records

Sequence: MMTVAHMWFDNQIHEADTTEDQSGATFDKRSPTWTALSRIAGLCNRAVFKAGQENISVSKRDTAGDASESALLKCIELSCGSVRKMRDRNPKVAEISFNSTNKYQLSIHEREDNPQSHVLVMKGAPERILDRCSSILVQGKEIPLDKEMQDAFQNAYLELGGLGERVLGFCQLNLPSGKFPRGFKFDTDELNFPTEKLCFVGLMSMIDHHHHHH
- soluble on expression in E. coli: soluble
